Among the data in the antibiotic and cytotoxicity screens of Wong et al. (2023) are growth inhibition call values, retold here.

The other results are listed elsewhere or left out.

For this assay, the system named is S. aureus RN4220. Kind of assay: growth inhibition call (relative growth <= 0.2). The note with it: 50 µM.
For `Cc1o[nH]c(=O)c1C[C@H](N)C(=O)O`, the growth inhibition call was “inactive”.
Regarding `NC1(c2ccccc2F)CCCC1`, the growth inhibition call is “inactive”.
As for `N#CC[N+]12CCN(CC1)CC2`, the growth inhibition call is “inactive”.
For `C=C(C)C1Cc2c(ccc3c(=O)c4c(oc23)COc2cc(OC)c(OC)cc2-4)O1` (configuration not stated), the growth inhibition call was “inactive”.
With `O=C1C[C@H](c2ccccc2)[C@@H]2CNCCN12`, the growth inhibition call is “inactive”.
The entry for `CC(C)[C@@]1(NC(=O)[C@@H]2C[C@@H]3c4cccc5[nH]cc(c45)C[C@H]3N(C)C2)O[C@@]2(O)[C@@H]3CCCN3C(=O)[C@H](Cc3ccccc3)N2C1=O` is “inactive”.
The entry for `O=C1C[C@@H](CO)CN1` is “inactive”.
The entry for `CC(C)Oc1ccccc1CCN` is “inactive”; for `NC1=NC(=O)N2C[C@@H]12` it is “inactive”; for `CC12CCC(O)CC1CCC1C2CC(O)C2(C)C(C3=CC(=O)OC3)CCC12O` (configuration not stated) it is “inactive”.
Take `Cn1cc(N2C[C@@H]3CN(CCO)C[C@@H]3C2=O)cn1`: the growth inhibition call is “inactive”.
For `CCCCCCCCCc1ccc(O)cc1`, the growth inhibition call is “inactive”.
Regarding `N#Cc1cnccn1`, the growth inhibition call was “inactive”.
The entry for `C[C@@H]1CC[C@@]2(OC1)O[C@H]1C[C@H]3[C@@H]4CC=C5C[C@@H](O[C@@H]6O[C@H](CO)[C@@H](O[C@@H]7O[C@@H](C)[C@H](O)[C@@H](O)[C@H]7O)[C@H](O)[C@H]6O[C@@H]6O[C@@H](C)[C@H](O)[C@@H](O)[C@H]6O)CC[C@]5(C)[C@H]4CC[C@]3(C)[C@H]1[C@@H]2C` is “inactive”; for `Cl.NCC(=O)c1ccccc1` it is “inactive”.
Take `C[C@@H]1CN([C@H](C)CO)C(=O)CCCn2nncc2CO[C@@H]1CN(C)C(=O)Oc1cccc2ccccc12`: the growth inhibition call was “inactive”.
As for `O=c1[nH]oc2c1CCNC2`, the growth inhibition call is “inactive”.
